# Reference: PubChem BioAssay AID1030 (National Center for Advancing Translational Sciences (NCATS), 2008)
# The campaign covered roughly 220,000 compounds. About 16,000 (7.3%) were called active. Inconclusive means that the source gave no clear call. Such entries were picked first, then a sample of the others. Calls follow the shape of the dose curve; as a rule, active = well fitted inhibition curve with a large enough effect (not every such curve was filed as active); inconclusive = small, poorly fitted or top-dose-only effect, or another doubt; inactive = no such curve, though single readings can be large or run the other way. No potency is given beside an inconclusive call; the fits are too rough.
# Molecular target: Aldehyde dehydrogenase 1A1 (Homo sapiens) (UniProt P00352)
# Chain of UniProt P00352 (P00352 whole entry, looked up): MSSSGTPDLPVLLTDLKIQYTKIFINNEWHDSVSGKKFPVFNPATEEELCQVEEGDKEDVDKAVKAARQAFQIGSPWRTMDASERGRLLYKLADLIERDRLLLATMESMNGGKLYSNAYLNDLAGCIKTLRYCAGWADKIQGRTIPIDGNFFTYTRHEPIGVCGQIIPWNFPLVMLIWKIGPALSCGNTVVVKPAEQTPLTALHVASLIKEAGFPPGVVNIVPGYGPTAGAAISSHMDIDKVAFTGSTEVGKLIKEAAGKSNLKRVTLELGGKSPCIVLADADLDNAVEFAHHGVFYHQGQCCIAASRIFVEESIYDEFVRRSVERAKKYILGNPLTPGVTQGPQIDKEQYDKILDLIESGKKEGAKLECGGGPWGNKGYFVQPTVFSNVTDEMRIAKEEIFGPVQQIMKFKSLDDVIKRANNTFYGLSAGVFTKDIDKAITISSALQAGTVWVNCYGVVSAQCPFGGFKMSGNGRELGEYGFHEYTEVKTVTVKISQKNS
# Assay: qHTS Assay for Inhibitors of Aldehyde Dehydrogenase 1 (ALDH1A1);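 as to activity, negative = inhibition: plate controls were no enzyme wells and a reference inhibitor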
# Conditions: Purified ALDH1A1, NADH fluorescence, propionaldehyde substrate; series mostly up to 75.3 µM
# Potency is read from the fitted curve at half-maximal effect; tags tell the direction and shape of the fitted curve.
SMILES,Potency,"activity, negative = inhibition"
C/C(CC(C)(C)C1CCCCC1)=N\NC(N)=S,"inconclusive [inhibitor, partial curve]",
CCC(C)(C)C1CCc2c(sc(N)c2C(N)=O)C1 (stereo not given),"inconclusive [inhibitor, single point]",
CCC(=O)N1CCN(c2nc3ccccc3s2)CC1,inactive,
CC12C=C(/C=C/c3ccc(Br)cc3)C(C)(C1)C(c1ccc(Br)cc1)CC2=O (stereo not given),,inactive: 2.81% [at 13.5 µM]
Cn1c(=O)n(C)c2cc(S(=O)(=O)Nc3ccccc3O)ccc21,"inconclusive [inhibitor, single point]",
COc1ccc(OC)c(NC(=O)Nc2cccc3ccccc23)c1,"inconclusive [inhibitor, partial curve]",
O=C(CSc1ccc(-c2ccco2)nn1)N1CCCCC1,"inconclusive [inhibitor, partial curve]",
C=CCOc1ccc(CNc2nn[nH]n2)cc1OC,"inconclusive [inhibitor, single point]",
CC(C)OCC(O)CN1CCNCC1 (stereo not given),inactive,
Cc1ccc(SCCC(=O)N/N=C/c2ccncc2)cc1,"inconclusive [inhibitor, single point]",
Cc1c(N2C(=O)/C(=C\C3CC=CCC3)SC2=S)c(=O)n(-c2ccccc2)n1C (stereo not given),active: 1.26 µM,
CCC1CCCCN1C(=O)CSc1nnc(CNC(=O)c2ccco2)o1 (stereo not given),"inconclusive [inhibitor, single point]",
CCOc1ccc(N2C(=O)/C(=C/c3ccccc3OCC(=O)OC)N(CC(=O)OC)C2=S)cc1,"inconclusive [inhibitor, single point]",
COc1ccc(C(=O)NCc2ccc(-n3cccc3)cc2)cc1OC,"inconclusive [inhibitor, single point]",
O=C(NNC(=S)NCc1ccccc1)c1ccc(OC(F)F)cc1,inactive,
CCOc1ccc(-n2c(SCC(=O)Nc3ccc(CC)cc3)nc3n[nH]c(C)c3c2=N)cc1,"inconclusive [inhibitor, partial curve]",
C/C(=N\NC(=O)c1ccc(CSc2cccc3cccnc23)cc1)C1CCCCC1,"inconclusive [inhibitor, partial curve]",
COc1ccccc1CNC(=O)C1CC(=O)N(C2CCCC2)C1 (stereo not given),inactive,
Cc1ccc(NC(=S)/C(=C(\[O-])c2ccc(C)c([N+](=O)[O-])c2)[n+]2ccccc2)cc1C,"inconclusive [inhibitor, full curve]",
CN(c1ccccc1)S(=O)(=O)c1cc(C(=O)OCC(=O)N2CCN(C(=O)c3ccco3)CC2)ccc1Cl,"inconclusive [inhibitor, single point]",
CSc1ncccc1C(=O)OCc1cccc([N+](=O)[O-])c1,inactive,
COC(=O)c1ccc(NC(=O)c2ccc(NC(=O)C3CCCO3)cc2)cc1 (stereo not given),"inconclusive [inhibitor, partial curve]",
CCOc1ccc2nc(SCC(=O)Nc3ccc4c(c3)OCO4)sc2c1,inactive,
COc1ccc(/C=C/c2cc(C(F)(F)F)[nH]c(=O)n2)cc1OC,"inconclusive [inhibitor, partial curve]",
Cc1nn(C(=O)CCCn2cc([N+](=O)[O-])cn2)c(C)c1Cl,"inconclusive [inhibitor, single point]",

SMILES,Potency,"activity, negative = inhibition"
O=c1c2sc3nc(N4CCOCC4)c4c(c3c2ncn1-c1ccccc1)CCCC4,"inconclusive [inhibitor, partial curve]",
O=C(O/N=C\c1ccc(N2CCOCC2)c([N+](=O)[O-])c1)c1ccccc1Cl,active: 1.58 µM,
C=CCNc1nc(-c2ccc(Cl)cc2)cs1,inactive,
COc1cccc(-c2nnc(NC(=O)c3ccc4ncsc4c3)o2)c1,"inconclusive [inhibitor, single point]",
Cc1cc(N/N=C2\CC(C)CC(C)(C)C2)nc2ccccc12 (stereo not given),"inconclusive [inhibitor, single point]",
CCOC(=O)CNC(=S)n1cnc(N)n1,active: 31.6 µM,
Cc1cccc(OCCC(=O)Nc2ccc(F)c(Cl)c2)c1,inactive,
CC1CN/C(=C\C(=O)c2ccc(Cl)cc2)C(=O)N1 (stereo not given),"inconclusive [inhibitor, single point]",
CN(C)c1ccc(SC#N)cc1,active: 12.6 µM,
COc1ccc(C)cc1NC(=O)C(OC(=O)CNC(=O)c1cc(C)cc(C)c1)c1ccccc1 (stereo not given),"inconclusive [inhibitor, single point]",
Cc1ccnc(-n2c(CCN3C(=O)c4ccccc4C3=O)nc3ccccc3c2=O)c1,"inconclusive [inhibitor, partial curve]",
CCOc1ccc(C(=O)NCc2ccco2)cc1,"inconclusive [inhibitor, partial curve, poor fit]",
COc1ccccc1CNC(=O)c1cccc2c1C(=O)N(Cc1cccnc1)C2,inactive,
COc1ccc(-c2nsc3c(N4CCN(C(=O)c5ccco5)CC4)ncnc23)cc1,"inconclusive [inhibitor, partial curve]",
CCCOc1ccc(CC(=O)NNC(=S)Nc2ccccc2)cc1Br,active: 17.8 µM,
CCOC(=O)c1c(C)oc2c1c1c(c3ccccc32)OCN(Cc2ccccn2)C1,"inconclusive [inhibitor, partial curve]",
Cc1ccc(-c2cccc([C@H]3[C@@H]4C=CC[C@@H](C)[C@@H]4C(=O)N3Cc3ccccc3)c2)cc1,inactive,
CC(Sc1nc2ccccc2c(=O)n1Cc1ccco1)C(=O)c1ccccc1 (stereo not given),"inconclusive [inhibitor, full curve]",
COc1cccc(C(=O)Oc2ccc(N3C(=O)CCC3=O)c(C)c2)c1,inactive,
COc1ccc(-c2cc(C(=O)NCC3CCCO3)c3ccccc3n2)cc1 (stereo not given),"inconclusive [inhibitor, partial curve]",
O=C(NCc1cccnc1)c1csc2c1CCCC2,"inconclusive [inhibitor, partial curve]",
CCOc1ccccc1NC(=O)N1CCC(C(=O)c2ccc(F)cc2)CC1,active: 5.01 µM,
COc1ccc(C(=O)c2cc3ccc(O)cc3oc2=O)cc1,inactive,
CC(=O)Nc1cc[n+](C(C)C(=O)c2ccc(Br)cc2)cc1 (stereo not given),inactive,
Cc1ccccc1NC(=S)NC1CCN(Cc2ccccc2)CC1,"inconclusive [inhibitor, single point]",

SMILES,Potency,"activity, negative = inhibition"
Cc1cc(NC(=O)C2CCCCC2)ccc1NC(=O)c1ccccc1Cl,inactive,
O=C(Nc1ccc(Br)cc1)Nc1ccccc1Cl,inactive,
O=C(COc1ccccc1Cl)N1CCN(c2ncccn2)CC1,"inconclusive [inhibitor, single point]",
O=C(CCC(=O)N1CCCC1)Nc1ccc([N+](=O)[O-])cc1,"inconclusive [inhibitor, single point]",
Nc1cc(N)cc(-c2nc3ccccc3[nH]2)c1,"inconclusive [inhibitor, single point]",
CCCC(=O)Nc1sc(C)c(-c2ccc(C(C)CC)cc2)c1C#N (stereo not given),"inconclusive [inhibitor, partial curve, poor fit]",
Oc1ccc(/C=N/N(Cc2ccccc2)c2ccccc2)cc1,"inconclusive [inhibitor, single point]",
COC(=O)C1=C(C)N(CCc2ccccc2)C(=O)/C1=C\c1ccco1,"inconclusive [inhibitor, single point]",
COc1ccc(C2=NCC(CSc3nccc(=O)[nH]3)S2)cc1 (stereo not given),"inconclusive [inhibitor, single point]",
CCC1(C)Cc2c(c(=O)n(-c3ccccc3)c3ncnc(N)c23)CO1 (stereo not given),"inconclusive [inhibitor, single point]",
O=C(COc1ccccc1-c1ccccc1)N/N=C/c1ccc2ccccc2c1,inactive,
O=C(COc1cccc2ccccc12)N1CCN(c2ccccn2)CC1,"inconclusive [inhibitor, single point]",
Cc1ccc(C)c(NC(=O)CSc2nnc(C)c(=O)n2N)c1,inactive,
O=C(O)CCC1(C(=O)O)OCCc2ccccc21 (stereo not given),inactive,
CC(C)(C)NC(=S)NCc1ccco1,"inconclusive [inhibitor, single point]",
CC1CCCC(NC(=O)COC(=O)CCC2CCCC2)C1C (stereo not given),active: 11.2 µM,
CCN(CC)c1ccc(C(=O)OCC(=O)Nc2cc3oc4ccccc4c3cc2OC)cc1,inactive,
CC(C(=O)Nc1cc([N+](=O)[O-])ccc1Cl)N1CCN(c2ccccc2O)CC1 (stereo not given),"inconclusive [inhibitor, single point]",
Cc1ccc(C)c(-n2c(SCC(=O)Nc3nnc(C)s3)nnc2-c2ccoc2C)c1,"inconclusive [inhibitor, single point]",
CCNc1nc(NC(C)CC)nc(Oc2ccc(=O)[nH]n2)n1 (stereo not given),inactive,
O=C(NCCSCc1ccccc1)c1ccc(Cl)c(S(=O)(=O)N2CCOCC2)c1,"inconclusive [inhibitor, single point]",
CC(=O)Nc1ccc(NC(=O)Cn2nc([N+](=O)[O-])c(Br)c2C)cc1,inactive,
CCCCC(=O)Nc1ccc(C(=O)N2CCC(C(=O)OCC)CC2)cc1,inactive,
CC(C)(C)c1cc(C(=O)NCc2cc(F)cc3c2OCOC3)n(Cc2ccccc2)n1,inactive,
O=C(COC(=O)c1ccc2ccccc2n1)NCc1ccccc1,inactive,
